Results on 88 compounds are retold here after article PMC4336329 (PLoS ONE, 2015).

In all, about 310,000 compounds went through this assay and about 2,200 (0.71%) showed an effect of 50% or more. Effects have a minus sign here. This is one part of the list.

The target in the assay is human ether-à-go-go-related gene (hERG) potassium channel (human, UniProt Q12809). Nature of the assay: primary screen, population patch clamp on CHO cells stably expressing hERG.
human ether-à-go-go-related gene (hERG) potassium channel, sequence (Q12809 whole entry, looked up): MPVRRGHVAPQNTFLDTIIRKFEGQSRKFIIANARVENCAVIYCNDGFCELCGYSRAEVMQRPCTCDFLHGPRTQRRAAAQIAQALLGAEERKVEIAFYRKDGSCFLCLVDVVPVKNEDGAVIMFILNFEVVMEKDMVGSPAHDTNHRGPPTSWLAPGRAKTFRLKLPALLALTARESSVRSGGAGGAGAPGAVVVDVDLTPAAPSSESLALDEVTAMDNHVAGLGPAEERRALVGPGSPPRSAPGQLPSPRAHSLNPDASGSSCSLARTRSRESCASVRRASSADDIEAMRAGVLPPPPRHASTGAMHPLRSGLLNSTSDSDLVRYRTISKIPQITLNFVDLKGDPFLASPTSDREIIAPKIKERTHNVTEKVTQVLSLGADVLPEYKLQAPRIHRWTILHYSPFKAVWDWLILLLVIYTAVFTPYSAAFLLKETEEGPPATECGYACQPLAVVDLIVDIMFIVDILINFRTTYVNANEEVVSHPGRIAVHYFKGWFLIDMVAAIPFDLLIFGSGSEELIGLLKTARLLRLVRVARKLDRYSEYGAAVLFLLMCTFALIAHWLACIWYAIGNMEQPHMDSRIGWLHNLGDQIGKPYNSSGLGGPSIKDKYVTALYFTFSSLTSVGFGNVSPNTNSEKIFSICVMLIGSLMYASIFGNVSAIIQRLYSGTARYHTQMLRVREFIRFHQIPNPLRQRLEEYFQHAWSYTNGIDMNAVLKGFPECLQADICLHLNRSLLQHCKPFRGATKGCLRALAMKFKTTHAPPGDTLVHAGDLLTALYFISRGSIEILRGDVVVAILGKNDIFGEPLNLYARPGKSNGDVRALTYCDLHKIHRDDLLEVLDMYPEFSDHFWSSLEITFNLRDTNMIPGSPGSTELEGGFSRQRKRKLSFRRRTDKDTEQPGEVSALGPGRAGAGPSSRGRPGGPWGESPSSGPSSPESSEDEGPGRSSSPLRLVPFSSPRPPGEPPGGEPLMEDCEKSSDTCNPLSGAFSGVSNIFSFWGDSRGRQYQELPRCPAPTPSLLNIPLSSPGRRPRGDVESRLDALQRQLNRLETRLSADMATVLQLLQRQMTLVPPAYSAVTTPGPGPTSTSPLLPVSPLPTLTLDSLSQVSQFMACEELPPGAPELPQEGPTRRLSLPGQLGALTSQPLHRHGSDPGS
Consider `COc1ccc(NS(=O)(=O)c2ccc3oc(SC(C)C(N)=O)nc3c2)cc1` (stereo not shown), for which the “hERG current change (%, negative = inhibition) at 1uM” value was 17.3%. The same measure for `CCCCc1c(C)nc(N2CCCC2)[nH]c1=O`: 11.6%; for `CSc1cccc(NC(=O)CSc2nnc(C)s2)c1`: 2.62%; for `CN1CCCC(OC(=O)c2ccc(Cl)cc2)C1.Cl` (stereo not shown): 10.4%.

As to `O=C(CSc1nc2ccccc2c(=O)n1-c1ccccc1F)Nc1ccc2c(c1)CCC2`, the “hERG current change (%, negative = inhibition) at 1uM” value turned out to be 14.6%.

Take `CCCCCC(O)(c1ccccc1)C(CN1CCOCC1)c1ccccc1.Cl` (stereo not shown): the “hERG current change (%, negative = inhibition) at 1uM” value stood at 7.36%. The same measure for `Cc1ccc(CC(=O)N2CCN(C(=O)c3ccco3)CC2)cc1`: 9.61%; for `O=C(CN(C(=O)Cn1nnc(-c2ccc(F)cc2)n1)c1ccc(F)cc1)NC1CCCC1`: 11.9%; for `O=C(CCS(=O)(=O)c1ccccc1)N1CCN(c2ccccc2F)CC1`: 15.8%. The same measure for `O=C(NC1CCCC1)c1cc(-c2ccc(Cl)cc2Cl)on1`: 7.05%; for `O=C(Nc1ccccc1N1CCOCC1)C1CCN(S(=O)(=O)c2ccc(Cl)cc2)CC1`: 6.63%; for `CC(=O)Nc1cccc(Oc2ccc3c(c2)C(=O)NC3=O)c1`: 14.2%. For the compound `Cc1ccc(CNC(=O)C2CCCN2S(=O)(=O)c2ccc3c(c2)C(C)(C)C(=O)N3C)cc1` (stereo not shown), the “hERG current change (%, negative = inhibition) at 1uM” value was 6.8%. Under `Cc1ccc(-c2csc(NC(CO)c3nc4ccccc4n3CCOCCO)n2)cc1` (stereo not shown) stands -4.22%; under `COc1cccc(N2CCN(S(=O)(=O)c3ccc4c(c3)NC(=O)C(C)C(=O)N4)CC2)c1` (stereo not shown), 4%. The same measure for `Cn1c(=O)cc(OCCCC(=O)NCc2cccnc2)c2ccccc21`: 6.27%; for `Cc1ccc(-n2ncc3c(N4CCN(c5ccccc5)CC4)ncnc32)c(C)c1`: -5.64%; for `CCC1(C)Cc2c(sc3nc(SC)nc(NCCN(C)C)c23)CO1` (stereo not shown): -13.3%.

`CCCCCCCOC(=O)c1nc(Cl)c(Cl)c(N)c1Cl`: the “hERG current change (%, negative = inhibition) at 1uM” value is 0.504%. The same measure for `Cc1cc(C)n(CCC(=O)N=Nc2c(O)[nH]c3ccccc23)n1`: 4.21%; for `N#CCCN1CCCN(CCC#N)CCN(CCC#N)CCCN(CCC#N)CC1`: 16.3%; for `O=C(CN1c2cccc3cccc(c23)S1(=O)=O)N1CCN(c2ccc(F)cc2)CC1`: 3.26%.

With `Cc1ccc(S(=O)(=O)n2[nH]c(=O)cc2NC(=O)c2cccs2)cc1`, the “hERG current change (%, negative = inhibition) at 1uM” value was determined as 5.74%. Under `Cc1ccc(N2C(=O)Nc3cc(Cl)c(Cl)cc3N2O)cc1Cl` stands 12.7%; under `Cc1ccc(CN2CCN(C3CCCC3)C(CCO)C2)s1` (stereo not shown), 3.65%; under `COc1cccc(NS(=O)(=O)c2ccc(S(=O)(=O)N3CCCC3)cc2)c1`, 4.73%. Under `COc1ncnc2c1NC(=O)CS2` stands 10.2%; under `Cc1cccc(OCC(=O)Nc2nonc2NC(=O)COc2cccc(C)c2)c1`, 10.7%. Under `CCN=C1S/C(=C\c2cn(C(C)=O)nc2-c2ccccc2)C(=O)N1CC` stands 17%; under `O=C(CNC(=O)c1ccccc1F)NCCc1ccc(Cl)cc1`, 9.91%. Turning to `Cc1ccc(S(=O)(=O)/N=C(/Nc2ccc(F)cc2F)c2ccc(F)cc2)cc1`, the “hERG current change (%, negative = inhibition) at 1uM” value turned out to be 10.5%.

Consider `CCOc1ccccc1N(CC(=O)NC1CCCCC1)S(=O)(=O)c1ccc(C)cc1`, for which the “hERG current change (%, negative = inhibition) at 1uM” value is 10%. Under `Cc1ccc(S(=O)(=O)N2CCOCC2)cc1NC(=O)CSc1ccc(Cl)cc1` stands -0.243%; under `Cc1c(Cl)cccc1N1C(=O)c2ccccc2C1=O`, 6.94%; under `Cc1cc(NC(=O)CCC(=O)N(Cc2ccco2)C(C(=O)NC2CCCC2)c2ccccc2C)no1` (stereo not shown), 6.65%. The same measure for `CCCCSc1nc2ccccc2n1CC(=O)O`: 10.8%; for `O=C(CSC1=NCCS1)NCc1ccco1`: 14.7%; for `CC1=C(C)C(=O)C(CCCCC#CCCCC#CCO)=C(C)C1=O`: -0.707%. As for `COc1cc(C(=O)Nc2ccccn2)cc(OC)c1OC`, the “hERG current change (%, negative = inhibition) at 1uM” value was 14.8%. Take `Cc1ccc(C)c(OCCCCN2CCNCC2)c1C.O=C(O)C(=O)O`: the “hERG current change (%, negative = inhibition) at 1uM” value turned out to be 9.14%. The same measure for `COc1ccccc1NC(=O)C1CCCN1C(=O)NC1CCCCC1` (stereo not shown): 9.3%; for `CC(C)C(NC(=O)CCNC(=O)c1ccc([N+](=O)[O-])cc1)c1nc2ccccc2[nH]1` (stereo not shown): 8.95%. The same measure for `COc1cc(NC(=O)Cn2nnc(-c3ccncc3)n2)cc(OC)c1`: 10.7%.

On to `O=C(NCc1ccc2c(c1)OCO2)c1cnc2ccccn2c1=O`, for which the “hERG current change (%, negative = inhibition) at 1uM” value is 5.17%. Under `O=C(CCSc1ccccc1)NC(=O)COC(=O)C1CCCCC1` stands 6.89%; under `COc1ccccc1CN1C[C@@H]2C[C@@H](c3[nH]c4c(C)cccc4c3C)N3CCC[C@@]23C1=O`, 3.11%; under `O=C(Nc1ccon1)c1ccc(Br)o1`, -1.21%. In the case of `CCOC(=O)c1[nH]cnc1C(=O)N1CCC(C)CC1`, the “hERG current change (%, negative = inhibition) at 1uM” value amounted to 24.3%. The same measure for `Cc1ccc(C2=NNC(=O)C(c3ccc(Cl)cc3)C2)cc1` (stereo not shown): 2.89%; for `CCc1nnc(NC(=O)c2ccc(S(=O)(=O)N3CCCCC3)cc2)s1`: 8.05%. Under `Cn1c(=O)c(=O)n(C)c2cc(S(=O)(=O)N3CCc4ccccc43)ccc21` stands -8.77%; under `COc1ccc(OC)c(C(C)NC(=O)c2ccco2)c1` (stereo not shown), -0.976%. With `Cc1cc(C)c(C)c(C(=O)COC(=O)CNC(=O)CN2C(=O)c3ccccc3C2=O)c1C`, the “hERG current change (%, negative = inhibition) at 1uM” value amounted to 5.4%. The same measure for `CCOC(=O)N1CCN(C(=O)c2sc3nc(-c4ccc(F)cc4)cn3c2C)CC1`: -22.3%. On to `COC(=O)CSc1nc(C(C)C)nc2ccccc12`, for which the “hERG current change (%, negative = inhibition) at 1uM” value is recorded as 1.09%.

Regarding `Cc1[nH]c2ccccc2c1Cc1nnc(SCC(N)=O)o1`, the “hERG current change (%, negative = inhibition) at 1uM” value was found to be 10.7%. The same measure for `CN(C)S(=O)(=O)c1cc(NC(=O)COC(=O)CCc2ccccc2)ccc1Cl`: 3.19%; for `Cc1ccc(N(CC(O)CN2CCOCC2)S(=O)(=O)c2ccc3ccccc3c2)cc1` (stereo not shown): -55.6%. `CCOC(=O)C1=NN(c2ccccc2)C(=O)/C1=C\c1ccc(N(C)C)cc1`: the “hERG current change (%, negative = inhibition) at 1uM” value worked out at 19.4%. Under `O=C(O)CCC(=O)Nc1sc2c(c1C(=O)Nc1ccccc1)CCCCC2` stands 12.2%; under `COc1cc(/C=C2\C(=O)NC(=O)N(c3ccc(C)cc3)C2=O)cc(OC)c1O`, 7.42%; under `O=C(Cn1c(=O)oc2cc(S(=O)(=O)N3CCCC3)ccc21)NCc1ccccn1`, 6.64%. The same measure for `CCCCCCCC1CC(/C(C)=N/NC(N)=O)OC1=O` (stereo not shown): -16.2%. Under `O=C(CNC(=O)Cn1cnc2sc3c(c2c1=O)CCCC3)NCc1ccccn1` stands 16.6%; under `CCN(CC(=O)Nc1c(F)cccc1F)C(=O)CSC(=S)N1CCCC1`, 6.34%; under `O=C(O)c1ccc(CSc2nnc(-c3ccncc3)n2CC2CCCO2)cc1` (stereo not shown), 11.5%. In the case of `CC(C)c1ccc(Nc2nc(CC(=O)O)cs2)cc1`, the “hERG current change (%, negative = inhibition) at 1uM” value was 13.2%. The same measure for `Cc1ccc(-n2nc(N)c3c(=O)oc(N(C)C)nc32)cc1`: 7.91%; for `Cc1cc(C)c[n+](-c2nc3ccccc3nc2[N-]S(=O)(=O)c2ccc(Br)s2)c1`: 3.02%. As to `Cc1cc(N)n2nc(-c3ccccc3)c(-c3ccccc3)c2n1`, the “hERG current change (%, negative = inhibition) at 1uM” value was found to be 9.65%. Under `O=C(CSC1=Nc2ccccc2C2=NC(Cc3c[nH]c4ccccc34)C(=O)N12)NC1CCCCC1` (stereo not shown) stands 5.25%; under `CC1(C)CC[C@@]23CC[C@]4(C)[C@@](OC2=O)(C3C1)[C@H]1O[C@H]1C1[C@@]2(C)CC[C@H](O)C(C)(C)C2CC[C@]14C` (stereo partly shown), 6.15%. Under `Cc1cccc(OCc2nc(-c3nonc3N)no2)c1C` stands 0.647%; under `Cn1cnnc1SCC(=O)Nc1ccc(F)cc1`, 17.4%; under `CCN1CCN(C(=O)c2cc(COc3ccc(F)cc3F)on2)[C@@H](C)C1=O`, 10.7%.

In the case of `COc1ccc(Br)c(-c2nc(CS(=O)(=O)c3ccc(F)cc3)no2)c1`, the “hERG current change (%, negative = inhibition) at 1uM” value was 8.18%. The same measure for `COc1ccccc1NC(=S)N(Cc1ccc(C)cc1)Cc1cccnc1`: -6.19%; for `COCc1cc(=O)oc2cc(NC(=O)c3ccc(C(C)(C)C)cc3)ccc12`: 12.2%. The same measure for `COc1cc(C(=O)N(c2ccc(C)c(C)c2)C2C=CS(=O)(=O)C2)cc(OC)c1OC` (stereo not shown): -5.4%; for `COc1ccc(C(=O)NNC(=O)c2cc(C)[nH]n2)cc1`: 10.6%; for `S=c1[nH]c(-c2ccccc2)cn1-c1ccccc1`: 14.8%. The same measure for `COC(=O)c1ccc(C2C(Oc3ccc(OC)cc3)C(=O)N2CCc2ccc(OC)c(OC)c2)cc1` (stereo not shown): 5.41%. As to `CC(=O)Nc1ccc(S(=O)(=O)NC2C3(C)CCC(C3)C2(C)C)cc1` (stereo not shown), the “hERG current change (%, negative = inhibition) at 1uM” value is 12.6%.

For the compound `CC(NC(=O)[C@H](C)NC(=O)N1CCn2c1nc1ccccc12)c1ccccc1` (stereo partly shown), the “hERG current change (%, negative = inhibition) at 1uM” value came out at 9.09%. Turning to `O=C(CN(C(=O)c1csnn1)c1ccccc1)NCCc1ccccc1`, the “hERG current change (%, negative = inhibition) at 1uM” value was 9.21%. The same measure for `CN(C)CCCN1C(=O)CSC1c1ccc([N+](=O)[O-])cc1.Cl` (stereo not shown): -11.4%; for `CC(=O)N1c2ccccc2Sc2ccccc21`: 12.6%. The same measure for `CCOC(=O)Cn1cnc2c(nnn2Cc2ccc(Cl)cc2)c1=O`: 10.8%.
